# Measurements published in the supplement of paper PMC8728848.
# Some of the results follow.
# How the values were obtained:
# Assay in all cases: glycan array binding signal (z-score within array); higher = stronger binding
# Conditions in all cases: glycan notation: IUPAC condensed, linker removed
# [1] = target: Glc(a1-4)Glc(a1-4)Glc(a1-4)Glc(a1-4)Glc(a1-4)Glc(a1-4)Glc(a1-4)Glc(a1-4)Glc(a1-4)Glc(a1-4)Glc(a1-4)Glc
# Outline: (§1)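 The Consortium for Functional Glycomics database supplied 3228 glycan arrays, of which those lacking an available protein sequence were dropped. The binding signal, a within-array Z-score, was averaged across arrays of the same protein sequence and across linkers. Negative scores can be read as non-binding.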
# [2] = target: Glc(a1-4)Glc(a1-4)Glc(a1-4)Glc(a1-4)Glc(a1-4)Glc(a1-4)Glc(a1-4)Glc(a1-4)Glc(a1-4)Glc(a1-4)Glc(a1-4)Glc(a1-4)Glc
# Outline: as §1
# Glc(a1-4)Glc(a1-6)Glc = target: Glc(a1-4)Glc(a1-6)Glc
# Outline: as §1
# Glc(a1-6)Glc = target: Glc(a1-6)Glc
# Outline: as §1
# Glc(a1-6)Glc(a1-4)Glc = target: Glc(a1-6)Glc(a1-4)Glc
# Outline: as §1
# [3] = target: Glc(a1-6)Glc(a1-4)Glc(a1-4)Glc
# Outline: as §1
# [4] = target: Glc(a1-6)Glc(a1-4)Glc(a1-4)Glc(a1-6)Glc(a1-4)Glc(a1-4)Glc
# Outline: as §1
# Glc(a1-6)Glc(a1-6)Glc = target: Glc(a1-6)Glc(a1-6)Glc
# Outline: as §1
# [5] = target: Glc(a1-6)Glc(a1-6)Glc(a1-6)Glc
# Outline: as §1
# [6] = target: Glc(a1-6)Glc(a1-6)Glc(a1-6)Glc(a1-6)Glc
# Outline: as §1
# [7] = target: Glc(a1-6)Glc(a1-6)Glc(a1-6)Glc(a1-6)Glc(a1-6)Glc
# Outline: as §1
# [8] = target: Glc(a1-6)Glc(a1-6)Glc(a1-6)Glc(a1-6)Glc(a1-6)Glc(a1-6)Glc
# Outline: as §1
# [9] = target: Glc(a1-6)Glc(a1-6)Glc(a1-6)Glc(a1-6)Glc(a1-6)Glc(a1-6)Glc(a1-6)Glc
# Outline: as §1
# [10] = target: Glc(a1-6)Glc(a1-6)Glc(a1-6)Glc(a1-6)Glc(a1-6)Glc(a1-6)Glc(a1-6)Glc(a1-6)Glc
# Outline: as §1
# [11] = target: Glc(a1-6)Glc(a1-6)Glc(a1-6)Glc(a1-6)Glc(a1-6)Glc(a1-6)Glc(a1-6)Glc(a1-6)Glc(a1-6)Glc
# Outline: as §1
# [12] = target: Glc(a1-6)Glc(a1-6)Glc(a1-6)Glc(a1-6)Glc(a1-6)Glc(a1-6)Glc(a1-6)Glc(a1-6)Glc(a1-6)Glc(a1-6)Glc
# Outline: as §1
# [13] = target: Glc(a1-6)Glc(a1-6)Glc(a1-6)Glc(a1-6)Glc(a1-6)Glc(a1-6)Glc(a1-6)Glc(a1-6)Glc(a1-6)Glc(a1-6)Glc(a1-6)Glc
# Outline: as §1
# [14] = target: Glc(a1-6)Glc(a1-6)Glc(a1-6)Glc(a1-6)Glc(a1-6)Glc(a1-6)Glc(a1-6)Glc(a1-6)Glc(a1-6)Glc(a1-6)Glc(a1-6)Glc(a1-6)Glc
# Outline: as §1
# Glc(b1-2)Glc = target: Glc(b1-2)Glc
# Outline: as §1
# Glc(b1-2)Glc(b1-2)Glc = target: Glc(b1-2)Glc(b1-2)Glc
# Outline: as §1
# [15] = target: Glc(b1-2)Glc(b1-2)Glc(b1-2)Glc
# Outline: as §1
# [16] = target: Glc(b1-2)Glc(b1-2)Glc(b1-2)Glc(b1-2)Glc
# Outline: as §1
# [17] = target: Glc(b1-2)Glc(b1-2)Glc(b1-2)Glc(b1-2)Glc(b1-2)Glc
# Outline: as §1
# [18] = target: Glc(b1-2)Glc(b1-2)Glc(b1-2)Glc(b1-2)Glc(b1-2)Glc(b1-2)Glc
# Outline: as §1
# [19] = target: Glc(b1-2)Glc(b1-2)Glc(b1-2)Glc(b1-2)Glc(b1-2)Glc(b1-2)Glc(b1-2)Glc
# Outline: as §1
# [20] = target: Glc(b1-2)Glc(b1-2)Glc(b1-2)Glc(b1-2)Glc(b1-2)Glc(b1-2)Glc(b1-2)Glc(b1-2)Glc
# Outline: as §1
# [21] = target: Glc(b1-2)Glc(b1-2)Glc(b1-2)Glc(b1-2)Glc(b1-2)Glc(b1-2)Glc(b1-2)Glc(b1-2)Glc(b1-2)Glc
# Outline: as §1
# [22] = target: Glc(b1-2)Glc(b1-2)Glc(b1-2)Glc(b1-2)Glc(b1-2)Glc(b1-2)Glc(b1-2)Glc(b1-2)Glc(b1-2)Glc(b1-2)Glc
# Outline: as §1
# [23] = target: Glc(b1-2)Glc(b1-2)Glc(b1-2)Glc(b1-2)Glc(b1-2)Glc(b1-2)Glc(b1-2)Glc(b1-2)Glc(b1-2)Glc(b1-2)Glc(b1-2)Glc
# Outline: as §1
# [24] = target: Glc(b1-2)Glc(b1-2)Glc(b1-2)Glc(b1-2)Glc(b1-2)Glc(b1-2)Glc(b1-2)Glc(b1-2)Glc(b1-2)Glc(b1-2)Glc(b1-2)Glc(b1-2)Glc
# Outline: as §1
# Glc(b1-3)Glc = target: Glc(b1-3)Glc
# Outline: as §1
# Glc(b1-3)Glc(b1-3)Glc = target: Glc(b1-3)Glc(b1-3)Glc
# Outline: as §1
# [25] = target: Glc(b1-3)Glc(b1-3)Glc(b1-3)Glc
# Outline: as §1
# [26] = target: Glc(b1-3)Glc(b1-3)Glc(b1-3)Glc(b1-3)Glc
# Outline: as §1
# [27] = target: Glc(b1-3)Glc(b1-3)Glc(b1-3)Glc(b1-3)Glc(b1-3)Glc
# Outline: as §1
# [28] = target: Glc(b1-3)Glc(b1-3)Glc(b1-3)Glc(b1-3)Glc(b1-3)Glc(b1-3)Glc
# Outline: as §1
# [29] = target: Glc(b1-3)Glc(b1-3)Glc(b1-3)Glc(b1-3)Glc(b1-3)Glc(b1-3)Glc(b1-3)Glc
# Outline: as §1
# [30] = target: Glc(b1-3)Glc(b1-3)Glc(b1-3)Glc(b1-3)Glc(b1-3)Glc(b1-3)Glc(b1-3)Glc(b1-3)Glc
# Outline: as §1
# [31] = target: Glc(b1-3)Glc(b1-3)Glc(b1-3)Glc(b1-3)Glc(b1-3)Glc(b1-3)Glc(b1-3)Glc(b1-3)Glc(b1-3)Glc
# Outline: as §1
# [32] = target: Glc(b1-3)Glc(b1-3)Glc(b1-3)Glc(b1-3)Glc(b1-3)Glc(b1-3)Glc(b1-3)Glc(b1-3)Glc(b1-3)Glc(b1-3)Glc
# Outline: as §1
# [33] = target: Glc(b1-3)Glc(b1-3)Glc(b1-3)Glc(b1-3)Glc(b1-3)Glc(b1-3)Glc(b1-3)Glc(b1-3)Glc(b1-3)Glc(b1-3)Glc(b1-3)Glc
# Outline: as §1
# [34] = target: Glc(b1-3)Glc(b1-3)Glc(b1-3)Glc(b1-3)Glc(b1-3)Glc(b1-3)Glc(b1-3)Glc(b1-3)Glc(b1-3)Glc(b1-3)Glc(b1-3)Glc(b1-3)Glc
# Outline: as §1
binder,measurement,setting,value
"laminarinase (Bacillus halodurans), Q9KBL8 (protein) EETIELEGEVIPARLLSTKVKALNYDDYHNVLIDRCVEGGESIRGLGDGSWIAFHDINLEQPTNLLTVRAANENKQAVLEIRADRVDGPLVSQSVIPPTGGLQAWTTVTAQVNGETSEIRDLYLVFKGEFQLSWFSFS",glycan array binding signal (z-score),[1],-0.678
same,glycan array binding signal (z-score),[2],-0.678
same,glycan array binding signal (z-score),Glc(a1-4)Glc(a1-6)Glc,-0.688
same,glycan array binding signal (z-score),Glc(a1-6)Glc,-0.688
same,glycan array binding signal (z-score),Glc(a1-6)Glc(a1-4)Glc,-0.688
same,glycan array binding signal (z-score),[3],-0.688
same,glycan array binding signal (z-score),[4],-0.688
same,glycan array binding signal (z-score),Glc(a1-6)Glc(a1-6)Glc,-0.688
same,glycan array binding signal (z-score),[5],-0.688
same,glycan array binding signal (z-score),[6],-0.688
same,glycan array binding signal (z-score),[7],-0.688
same,glycan array binding signal (z-score),[8],-0.688
same,glycan array binding signal (z-score),[9],-0.684
same,glycan array binding signal (z-score),[10],-0.674
same,glycan array binding signal (z-score),[11],-0.679
same,glycan array binding signal (z-score),[12],-0.611
same,glycan array binding signal (z-score),[13],-0.676
same,glycan array binding signal (z-score),[14],-0.688
same,glycan array binding signal (z-score),Glc(b1-2)Glc,-0.539
same,glycan array binding signal (z-score),Glc(b1-2)Glc(b1-2)Glc,-0.286
same,glycan array binding signal (z-score),[15],0.121
same,glycan array binding signal (z-score),[16],1.6
same,glycan array binding signal (z-score),[17],1.8
same,glycan array binding signal (z-score),[18],1.4
same,glycan array binding signal (z-score),[19],1.39
same,glycan array binding signal (z-score),[20],2.57
same,glycan array binding signal (z-score),[21],1.26
same,glycan array binding signal (z-score),[22],1.91
same,glycan array binding signal (z-score),[23],1.37
same,glycan array binding signal (z-score),[24],1.96
same,glycan array binding signal (z-score),Glc(b1-3)Glc,-0.627
same,glycan array binding signal (z-score),Glc(b1-3)Glc(b1-3)Glc,-0.536
same,glycan array binding signal (z-score),[25],0.421
same,glycan array binding signal (z-score),[26],0.748
same,glycan array binding signal (z-score),[27],1.23
same,glycan array binding signal (z-score),[28],1.12
same,glycan array binding signal (z-score),[29],2.39
same,glycan array binding signal (z-score),[30],1.82
same,glycan array binding signal (z-score),[31],2.13
same,glycan array binding signal (z-score),[32],2.35
same,glycan array binding signal (z-score),[33],2.38
same,glycan array binding signal (z-score),[34],2.46
